We go through four compounds from PubChem BioAssay (NCI).

Experiment in all cases: inhibition of tumour cell growth, NCI panel, 48 h
The test system of assay [1] is LOX IMVI melanoma.
Assay [2] deals with DU-145 prostate.
Assay [3] relates to CCRF-CEM leukemia.
Assay [4] relates to NCI/ADR-RES ovarian.
Assay [5] relates to SR leukemia.
In assay [6] the test system is MOLT-4 leukemia.
Assay [7] relates to M14 melanoma.
In assay [8] the test system is ACHN renal.
Assay [9] deals with OVCAR-4 ovarian.
In assay [10] the test system is PC-3 prostate.
In assay [11] the test system is MALME-3M melanoma.
For assay [12], the system named is NCI-H23 lung.
The test system of assay [13] is NCI-H460 lung.
Assay [14] relates to MCF7 breast.
Assay [15] relates to HL-60(TB) leukemia.
Assay [16] has as its system SF-539 CNS.
The subject of assay [17] is HCC-2998 colon.
In assay [18] the test system is A498 renal.
Assay [19] deals with OVCAR-8 ovarian.

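Exposure lasted 48 hours, with cells grown in 96-well plates and compounds tested at five concentrations. Here, GI50 denotes the concentration required for 50% inhibition of growth.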 Not every entry of the source has a single result; some have several. They are shown here; other results are not. There may be further records. For some assays here: Records of one sample usually come from different ranges of test concentrations, which the source does not state; some values may only mark the edge of a range. For some assays here: Results that share an entry are repeats (runs, samples, wells, individuals or studies). What stands in brackets tells the records apart. Letters hold for one entry only.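 At the TGI there is no net growth.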

Take `CN1CCN(CCn2c3c4ccccc4ccc3c3oc(=O)c4ccccc4c32)CC1`: the TGI in assay [1] was 2.99 µM and > 100 µM.
For `C1CN1c1nc(N2CC2)nc(N2CC2)n1`, the TGI in assay [2] was 61.5 µM and 3.55 µM; in [3], 51.2 µM and 900 nM.
With `CN(C)c1ccc2nc3ccc(N)cc3[n+](-c3ccccc3)c2c1`, the GI50 in assay [4] is > 100 µM [sample A, mean of 2 tests] and 1.02 µM [sample B, 1 test]; in assay [7] it was 5.23 µM [sample A, mean of 2 tests] and 420 nM [sample B, 1 test]; in [8], 12.3 µM [sample A, mean of 2 tests] and 404 nM [sample B, 1 test]; in assay [10] it was 2.95 µM [sample A, mean of 2 tests] and 127 nM [sample B, 1 test]. The TGI is > 100 µM [sample A, 1 test] and 8.88 µM [sample B, 1 test] in assay [5]; > 100 µM [sample A, 1 test] and 5.94 µM [sample B, 1 test] in assay [6]; 19.6 µM [sample A, mean of 2 tests] and 1.42 µM [sample B, 1 test] in assay [7]; > 100 µM [sample A, 1 test] and 1.88 µM [sample B, 1 test] in assay [9].
Take `C[C@@]1(CO)[C@H](O)CC[C@@]2(C)[C@H]1CC[C@H]1C[C@@H]3C[C@@]12CC[C@@]3(O)COC(=O)CN`: the GI50 in assay [11] was > 500 µM [1 test] and 31.6 µM, 43.7 µM [mean of 7 tests]; in assay [12], > 500 µM [1 test] and 5.53 µM [mean of 6 tests]. For the same compound, the TGI in [12] is 31.1 µM, > 500 µM, 117 µM; in [13] it was > 500 µM [1 test] and 23.7 µM [mean of 6 tests] and 114 µM [mean of 7 tests]; in assay [14], > 500 µM [1 test] and 44.4 µM [mean of 5 tests] and 192 µM [mean of 6 tests]; in assay [1], 28.4 µM, > 500 µM, 160 µM; in assay [15], 16.1 µM, > 500 µM, 41.9 µM; in assay [16], > 500 µM [1 test] and 60.4 µM, 24.8 µM [mean of 7 tests]. The TGI in assay [17] is 41.7 µM, > 500 µM, 202 µM; in [18], > 500 µM [1 test] and 42.4 µM [mean of 5 tests] and 141 µM [mean of 6 tests]; in assay [19] it was > 500 µM [1 test] and 26.8 µM, 122 µM [mean of 7 tests]; in [3] it was 44.2 µM, > 500 µM, > 277 µM.
